Source: PubChem BioAssay AID2546 (National Center for Advancing Translational Sciences (NCATS), 2010)
Out of some 310,000 compounds screened, about 11,000 (3.5%) were called active. The inconclusive results got no clear call from the source; some entries with a clear call stand among them for comparison. The call rests on the fitted dose curve; in most records, active means well fitted inhibition curve with a large enough effect; inconclusive means small, poorly fitted or top-dose-only effect, or effect the other way; inactive means flat fitted curve, though single readings scatter. Potencies of inconclusive entries are left out as doubtful fits.

assay: VP16 counterscreen qHTS for inhibitors of ROR gamma transcriptional activity; settings: Drosophila S2 Gal4-VP16 UAS-luciferase, luminescence, 20 h; series mostly up to 53.6 µM;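 further: Gal4-VP16 expression switched on by copper sulfate through the metallothionein promoter; nearly all actives have a fitted effect of over 50% in size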
Potency means the concentration at half of the fitted maximal effect; tags describe the fitted curve by direction and shape.

Question: Which Potency does the source give for `Cc1ccc(C2N(C)C(=O)c3ccccc3N2C)cc1` (stereo not given) here?
Answer: inactive

Question: Which Potency does the source give for `O=C(c1ccccc1)c1c2c(cc3sc4ccccc4[n+]13)-c1cccc3cccc-2c13` here?
Answer: active: 10 µM

Question: For `O=C(/C=C/c1ccco1)NC(=S)Nc1ccc(O)c(-c2nc3ccccc3s2)c1`, which Potency is on record?
Answer: active: 2 µM

Question: For `CN1C(=O)/C(=C\c2ccco2)N=C1c1ccc(Cl)cc1Cl`, which Potency is on record?
Answer: inconclusive [activator, partial curve]

Question: Which Potency does the source give for `CC1CC(=O)N(CC(=O)Nc2ccc3c(c2)OCO3)c2ccccc2S1` (stereo not given) here?
Answer: inactive

Question: For `Cc1cc(C)cc(NC(=S)NCC2CCCO2)c1` (stereo not given), which Potency is on record?
Answer: active: 35.5 µM

Question: For `COc1ccc(NC(=O)c2nc[nH]c2C(=O)N2CCC(C)CC2)cc1`, which Potency is on record?
Answer: inconclusive [inhibitor, single point]

Question: For `CCCc1ccc(C(=O)NNC(=O)c2ccc(Br)cc2)cc1`, which Potency is on record?
Answer: inactive

Question: For `O=C(Nc1nnc(-c2cccnc2)o1)c1cccc([N+](=O)[O-])c1`, which Potency is on record?
Answer: active: 1.12 µM

Question: For `Cc1cc(C)nc(Sc2nc(Cl)nc(N(c3ccccc3)c3ccccc3)n2)n1`, which Potency is on record?
Answer: inconclusive [inhibitor, single point]

Question: With `Nc1ccccc1Nc1ccccc1` as the compound, how does the Potency read?
Answer: inactive

Question: For `CCCN1CNC(=S)N(c2ccccc2C)C1`, which Potency is on record?
Answer: inconclusive [inhibitor, single point]

Question: For `CC(=O)c1c(C)[nH]c(C(=O)OCC(=O)Nc2ccc(Cl)c(S(=O)(=O)N(C)C)c2)c1C`, which Potency is on record?
Answer: inconclusive [inhibitor, single point]

Question: For `COC(=O)C1=CN(Cc2ccc(C)cc2)C=C(C(=O)OC)C1c1ccc(F)c(F)c1`, which Potency is on record?
Answer: inactive

Question: With `CCOC(=O)c1cc([N+](=O)[O-])c([N+](=O)[O-])cc1NC(C)=O` as the compound, how does the Potency read?
Answer: active: 3.16 µM

Question: With `Cc1ccc(C)c(C(=O)COc2ccccc2[N+](=O)[O-])c1` as the compound, how does the Potency read?
Answer: active: 12.6 µM

Question: With `O=C(COC(=O)c1cccc(NS(=O)(=O)c2ccc(F)c(F)c2)c1)NC(=O)NC1CCCC1` as the compound, how does the Potency read?
Answer: inconclusive [inhibitor, single point]

Question: With `COc1ccc(-c2[nH]ncc2CNC(C)c2ccccc2Cl)cc1F` (stereo not given) as the compound, how does the Potency read?
Answer: inactive

Question: With `COc1ccc(/C=C2\SC(=S)NC2=O)cc1OS(=O)(=O)c1ccc(NC(C)=O)cc1` as the compound, how does the Potency read?
Answer: inactive

Question: Which Potency does the source give for `COc1ccccc1CNC(=O)c1ccc(OCc2c(C)noc2C)c(OC)c1` here?
Answer: inactive

Question: With `CSc1cc(-c2ccc(Cl)cc2)c(C(=O)NC(C)C)s1` as the compound, how does the Potency read?
Answer: inactive

Question: With `S=C(NCCCc1ccccc1)NC1CCCCC1` as the compound, how does the Potency read?
Answer: active: 7.08 µM

Question: For `C/C=C/C=N/NC(=O)CN(c1ccc(Br)cc1)S(=O)(=O)c1ccccc1`, which Potency is on record?
Answer: inconclusive [inhibitor, single point]

Question: Which Potency does the source give for `Cc1cccc(C)c1NC(=O)CCCSc1nnc(N)s1` here?
Answer: inactive

Question: Which Potency does the source give for `Nc1cccc2c(=O)[nH]ccc12` here?
Answer: inactive

Question: With `Cc1nn(-c2ccccc2)c(Cl)c1/C=N/Nc1ccc(Cl)c(C(=O)O)c1` as the compound, how does the Potency read?
Answer: inconclusive [inhibitor, partial curve]

Question: For `O=C(N/N=C/c1cc([N+](=O)[O-])ccc1O)c1c[nH]c2ccccc12`, which Potency is on record?
Answer: inconclusive [inhibitor, single point]

Question: With `FC(F)Oc1ccc(NC(=S)NCC2COc3ccccc3O2)cc1` (stereo not given) as the compound, how does the Potency read?
Answer: inconclusive [inhibitor, single point]

Question: Which Potency does the source give for `CCOC(=O)/C=C(\C)Sc1cc(O)c2ccccc2c1O` here?
Answer: inconclusive [inhibitor, single point]

Question: Which Potency does the source give for `COc1cc2ccccc2cc1C(=O)Nc1nccs1` here?
Answer: inconclusive [inhibitor, single point]

Question: With `O=C(/C=C/c1c[nH]c2ccccc12)c1ccccc1` as the compound, how does the Potency read?
Answer: inconclusive [activator, single point]

Question: For `COc1ccc(NS(=O)(=O)c2ccc(N3CCCC3=O)cc2)cn1`, which Potency is on record?
Answer: inactive

Question: For `O=C(Cc1ccccc1Cl)Nc1ccc(S(=O)(=O)Nc2nccs2)cc1`, which Potency is on record?
Answer: inconclusive [activator, partial curve]

Question: Which Potency does the source give for `COc1cc(NC(=O)CSc2ccc(-c3cccnc3)nn2)cc(OC)c1` here?
Answer: inactive

Question: With `CN(NC1CC(=O)N(c2ccccc2)C1=O)c1ccccc1` (stereo not given) as the compound, how does the Potency read?
Answer: inconclusive [activator, single point]

Question: With `CC1=CC(C)(C)NC(=S)N1c1cc(C)cc(C)c1` as the compound, how does the Potency read?
Answer: inconclusive [inhibitor, single point]

Question: Which Potency does the source give for `Cc1ccc(/C=N/NC(=O)COc2ccccc2-c2ccccc2)cc1` here?
Answer: inconclusive [inhibitor, single point]

Question: Which Potency does the source give for `COc1ccccc1NC(=S)NCc1ccc(Cl)cc1` here?
Answer: active: 8.91 µM

Question: With `Cc1ccccc1-n1c(-c2ccco2)n[nH]c1=S` as the compound, how does the Potency read?
Answer: inconclusive [inhibitor, single point]

Question: Which Potency does the source give for `CN(C)CCNC(=S)Nc1ccc(-c2nc3ccccc3[nH]2)cc1` here?
Answer: inconclusive [inhibitor, single point]

Question: For `CCOc1ccc(C(=O)/C=C/c2cn(CN3CCN(C)CC3)c3ccccc23)cc1`, which Potency is on record?
Answer: inconclusive [inhibitor, single point]

Question: For `CCNC(=S)N/N=C/c1c(C)nn(-c2cccc(Cl)c2)c1Cl`, which Potency is on record?
Answer: active: 3.55 µM

Question: Which Potency does the source give for `CC(=O)c1cccc(N(CC(=O)Nc2ccc(F)cc2F)S(C)(=O)=O)c1` here?
Answer: inconclusive [activator, single point]

Question: With `COc1cccc([C@@H]2Oc3ccc(OC)cc3C(=O)[C@H]2OC(=O)NCc2ccc3c(c2)OCO3)c1` as the compound, how does the Potency read?
Answer: inconclusive [inhibitor, single point]

Question: With `CC1Cc2cc(S(=O)(=O)CCC(=O)NCc3ccco3)ccc2N1C(=O)C1CC1` (stereo not given) as the compound, how does the Potency read?
Answer: inactive

Question: Which Potency does the source give for `CCn1c(CCCc2ccc(OC)c(C)c2)n[nH]c1=S` here?
Answer: inconclusive [inhibitor, full curve]

Question: Which Potency does the source give for `COC(=O)CC1C(=O)NCCN1C(=S)NC(=O)c1sc2ccccc2c1Cl` (stereo not given) here?
Answer: active: 7.08 µM

Question: For `COc1ccc(N2CC(O)=C(c3nc(-c4ccc(F)cc4)cs3)C2=N)cc1`, which Potency is on record?
Answer: inactive

Question: For `CCCC(=O)c1ccc(N2CCN(C(=O)c3cccs3)CC2)c(F)c1`, which Potency is on record?
Answer: inconclusive [inhibitor, single point]

Question: With `Cc1nn(C)c(C)c1Sc1ccc(Br)cc1` as the compound, how does the Potency read?
Answer: inactive
